The text below walks through data of publication PMC6919601, “Identification of Plasmodium dipeptidyl aminopeptidase allosteric inhibitors by high throughput screening” (PLoS ONE, 2019).

The whole screen tested about 110,000 compounds, of which about 230 (0.21%) showed an effect of 50% or more. Some of the results follow.
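Further: 30 min substrate incubation versus DMSO and 10 µM JCP410 controls.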

DPAP1, sequence (Q8IIJ9 whole entry, looked up): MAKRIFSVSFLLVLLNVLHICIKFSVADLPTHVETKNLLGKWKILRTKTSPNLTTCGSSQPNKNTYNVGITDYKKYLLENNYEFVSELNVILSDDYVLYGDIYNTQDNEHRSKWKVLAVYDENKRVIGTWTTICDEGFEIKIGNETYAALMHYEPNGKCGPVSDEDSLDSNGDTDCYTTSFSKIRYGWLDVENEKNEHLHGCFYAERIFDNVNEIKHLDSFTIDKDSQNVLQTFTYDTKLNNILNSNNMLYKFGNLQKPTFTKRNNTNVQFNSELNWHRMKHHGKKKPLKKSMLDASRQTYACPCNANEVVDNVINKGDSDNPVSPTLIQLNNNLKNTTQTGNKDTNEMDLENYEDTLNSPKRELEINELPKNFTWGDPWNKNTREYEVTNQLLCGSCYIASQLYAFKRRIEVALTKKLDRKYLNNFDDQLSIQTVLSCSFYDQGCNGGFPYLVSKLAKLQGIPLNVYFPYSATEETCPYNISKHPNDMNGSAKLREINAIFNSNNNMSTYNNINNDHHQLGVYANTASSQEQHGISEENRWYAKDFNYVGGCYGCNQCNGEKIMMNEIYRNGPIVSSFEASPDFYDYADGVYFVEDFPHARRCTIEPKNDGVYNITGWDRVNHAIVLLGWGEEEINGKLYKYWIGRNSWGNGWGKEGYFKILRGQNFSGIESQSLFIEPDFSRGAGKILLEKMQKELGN

This test addresses DPAP1 (Plasmodium falciparum, UniProt Q8IIJ9). Description: primary screen, percent inhibition; read by cleavage of a fluorogenic dipeptide substrate; higher = more effect of the substance. Details: species or system P. falciparum D10 trophozoite lysates; single well.
Turning to `COc1ccc2c(c1)-c1nc(NC(=O)c3cccs3)sc1CC2`, the “% Inhibition @ 10 uM” value is on record as -1.27%. With `COc1ccc(-c2oc(=O)n(Cc3ccccc3)c2-c2ccc(OC)cc2)cc1` the figure was -4.73%; with `CCN(C(=O)CC(C)C)c1nc(-c2ccc(Br)cc2)cs1`, -0.426%. With `N#CC1=C(N)N(c2ccc(F)cc2)C2=C(C(=O)CCC2)C1c1ccc(F)cc1` (stereo not shown) the figure was -1.37%. The same measure for `CCOc1cccc(/C=C2\S/C(=N/c3ccc(OC)cc3)N(C)C2=O)c1O`: 2.53%; for `O=S(=O)(c1cc(Cl)ccc1Br)N1CCCCC1`: -5.2%.

As to `Cc1cccn2cc(-c3ccc(Cl)cc3)cc12`, the “% Inhibition @ 10 uM” value was -0.736%. The same measure for `O=C(NCc1cccnc1)N1c2ccccc2Sc2ccccc21`: 1.57%; for `CCN(CC)S(=O)(=O)c1ccc(Cc2ccc(S(=O)(=O)N(CC)CC)cc2)cc1`: 8.97%.

Regarding `COc1ccc(CNC(=O)c2cc3c(s2)-c2ccccc2OC3)c(OC)c1`, the “% Inhibition @ 10 uM” value is on record as -6.91%. For the compound `CCOc1cccc(C(=O)Nc2nc(-c3ccc(S(=O)(=O)N4CCCC4)cc3)cs2)c1`, the “% Inhibition @ 10 uM” value was 5.92%. With `O=C(CN1CCCC1)Nc1c2c(nc3ccccc13)N(c1ccccc1)CC2` the figure was 0.144%. With `Oc1ncnc2c1sc1nc(N3CCOCC3)c3c(c12)CCCC3`, the “% Inhibition @ 10 uM” value is given as 2.38%. The same measure for `O=C(Cc1ccc(Br)cc1)N1CCC(Cc2ccccc2)CC1`: -5.92%; for `Cc1ccc(-n2ncc3c(NCc4cccnc4)ncnc32)c(C)c1`: -6.12%; for `CC1CCN(c2nc3nonc3nc2Nc2ccc(F)cc2)CC1`: -2.03%. On to `COc1cc(CN2CCN(C3CCCC3)CC2)cc(OC)c1OC`, for which the “% Inhibition @ 10 uM” value is -3.83%.

`COc1cc(NS(=O)(=O)c2cc(Cl)ccc2Cl)c(OC)cc1Cl`: the “% Inhibition @ 10 uM” value is -5.49%. On to `CCOC(=O)c1cc2c(ccc3[nH]c(C)c(C)c32)nc1C`, for which the “% Inhibition @ 10 uM” value is on record as 2.62%.

Consider `Cc1cc(C)c(C#N)c(SC2CCCCC2=O)n1` (stereo not shown), for which the “% Inhibition @ 10 uM” value was 3.15%. The same measure for `Cc1nc(C23CC4CC(CC(C4)C2)C3)c(C)o1`: -0.712%; for `Cc1ccc(-n2nc(C)c(/C=N/c3ccc(C(=O)N(C)C)cc3)c2O)cc1C`: 2.69%; for `COc1cccc2c(CO)ccc(OC)c12`: -1.84%. The same measure for `CCCCCCn1c(=O)c2c(nc(NCc3ccco3)n2C)n(C)c1=O`: -1.72%. With `CCOc1cc(/C=C(\C#N)C(N)=O)ccc1OCc1cc(=O)n2nc(CC)sc2n1` the figure was -0.495%; with `COc1ccc(S(=O)(=O)NC(C(=O)O)c2ccccc2)cc1` (stereo not shown), -3.41%; with `CC1(C)CC(=O)C2=C(C1)OC1=C(C(=O)CC(C)(C)C1)C2c1ccc(-c2ccc3c(c2)COC3=O)o1`, -6.17%. `CN(C)c1ccc(/C=C2/C(=O)NC(=O)N(c3ccccc3O)C2=O)cc1`: the “% Inhibition @ 10 uM” value is -0.712%. On to `OC1CCCN(C2CCc3ccccc3C2)C1` (stereo not shown), for which the “% Inhibition @ 10 uM” value is recorded as -5.44%. The same measure for `CCOc1cc(S(=O)(=O)NCc2ccccn2)ccc1Cl`: -1.69%; for `Cc1ccc(CS(=O)Cc2ccc(C(=O)NCc3ccccc3C)o2)cc1` (stereo not shown): 0.677%; for `Cc1cc(C)c2c(-n3cccc3)c(C(=O)N3CCN(C4CCCCC4)CC3)sc2n1`: 0.623%. The same measure for `Cc1ccccc1-n1c(SCc2cc(=O)n3ccccc3n2)nc2nnc(C)c-2c1N`: -3.93%. With `O=C(CCNS(=O)(=O)c1ccc(Br)s1)NCc1ccc2c(c1)OCO2`, the “% Inhibition @ 10 uM” value was -0.601%. Take `COCCCn1c(=N)c(C(=O)NCc2ccco2)cc2c(=O)n3cc(C)ccc3nc21`: the “% Inhibition @ 10 uM” value is 1.97%. The same measure for `O=C(Cn1cc(C(=O)c2ccccc2)c2ccccc21)NCc1ccco1`: 3.25%. The same measure for `C=CCNC(=O)COc1ccc2c(c1)C(=O)CC(C)(C)O2`: -5.2%. The same measure for `Cc1ccc(/C=C(\NC(=O)c2ccccc2)C(=O)NCCc2ccccn2)o1`: 1.35%; for `Cc1ccc(-c2nc(CS(=O)CC(=O)NCCCN3CCCCCC3)c(C)o2)cc1` (stereo not shown): -4.71%.

Take `COc1ccc(Nc2cc(C)c3ccccc3n2)cc1`: the “% Inhibition @ 10 uM” value was -1.59%. The same measure for `CCn1c(C)c(C)c2cc(C(=O)NCC3CCCO3)ccc21` (stereo not shown): 0.224%; for `Cc1cc(C)nc(NC(=O)c2ccc(C(C)(C)C)cc2)n1`: -4.59%; for `CC(C)(C)c1ccccc1NC(=O)NC12CC3CC(CC(C3)C1)C2`: -1.57%. The same measure for `CCCCCn1c(Br)nc2c1c(=O)[nH]c(=O)n2C`: 4.41%; for `COc1ccc2[nH]cc(CCNS(=O)(=O)c3ccc(C)cc3)c2c1`: 1.7%. With `CCCn1c2ccccc2c2cnn(CC(=O)NCC3CCCO3)c(=O)c21` (stereo not shown) the figure was -1.96%; with `COC(=O)c1nc2n(n1)C(c1cc(OC)c(OC)c(OC)c1)C=C(c1cccs1)N2` (stereo not shown), -5.19%; with `COc1cc(NC(=O)CS(=O)(=O)c2ccc(C(F)(F)F)cc2Cl)c(OC)cc1Cl`, -1.28%. `Cc1ccc2c(c1)c1c(c(=O)n(Cc3ccccc3)c(=O)n1CC(=O)Nc1cc(C)[nH]n1)n2C`: the “% Inhibition @ 10 uM” value is on record as -1.01%. With `CN(C)/C=C1/C(=O)NC(=O)N(c2cccc(Cl)c2)C1=O` the figure was -4.21%; with `COc1cccc(C2C(C#N)=C(N)Oc3nc(SCc4ccccc4Cl)nc(N)c32)c1OC` (stereo not shown), 13.7%. In the case of `Cc1ccc(C)c(NC(=O)Cn2nc(C(F)(F)F)cc2C2CC2)c1`, the “% Inhibition @ 10 uM” value is given as -3.71%. Regarding `CSc1nnc(NC(=O)Cc2coc3c(C)c(C)ccc23)s1`, the “% Inhibition @ 10 uM” value was -6.04%. With `c1ccc(CN2CCC(NCCN3CCOCC3)CC2)cc1` the figure was -3.6%. The same measure for `COc1ccc2nc(N3C(=O)CC(Cc4ccc(Cl)cc4)C3=O)sc2c1` (stereo not shown): -3.28%.

As for `C=CCN1C(=O)S/C(=C/c2ccc(OC)c(OC)c2OC)C1=O`, the “% Inhibition @ 10 uM” value worked out at 3.93%.

Turning to `Cc1nn(C(=O)c2ccncc2)c(C)c1Sc1ccc(Cl)cc1`, the “% Inhibition @ 10 uM” value is -1.6%. On to `CCN(CC)CCCOc1ccccc1Cl`, for which the “% Inhibition @ 10 uM” value amounted to 6.08%. `CCN(CC)CCN(CC)Cc1ccc(F)cc1F`: the “% Inhibition @ 10 uM” value is listed as -5.44%.

With `CCN(Cc1ccncc1)C(=S)NCCc1ccccc1`, the “% Inhibition @ 10 uM” value is -4.35%. On to `CC(NC(=O)C1CCCN1S(=O)(=O)c1cccc2cccnc12)c1ccccc1` (stereo not shown), for which the “% Inhibition @ 10 uM” value is -4.21%. With `Cc1cc(C)n(-c2nncc(-c3ccccc3)n2)n1` the figure was -2.97%; with `Nc1ccc(C23CC4CC(CC(O)(C4)C2)C3)cc1`, -0.637%; with `CCOC(=O)C1=C(CNC2CCCCC2)NC(=O)NC1c1ccc(C)cc1` (stereo not shown), -1.03%.
